The values that follow are results of earlier work, collected in publication PMC11006913.

The list shows a part of the results.

For this series, the target named is HOXD13 Q325R (Homo sapiens) (UniProt P35453). Conditions: PBM; conditions not shown; double strand, one strand shown; scale: upbm affinity estimate (log intensity, higher = more binding, comparable within an allelic series).
Chain of UniProt P35453 (P35453 263-343 Q325R): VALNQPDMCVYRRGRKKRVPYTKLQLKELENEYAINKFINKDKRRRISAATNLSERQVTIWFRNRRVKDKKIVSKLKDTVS
Take CTTAGTAC [8-mer CTTAGTAC]: the binding signal was 11.7.
In the case of GTACTAAA [8-mer GTACTAAA], the binding signal was 12.4.
Take CGTACTAA [8-mer CGTACTAA]: the binding signal was 12.2.
Take CATACAAA [8-mer CATACAAA]: the binding signal was 12.
On to ATAAAATG [8-mer ATAAAATG], for which the binding signal was 12.1.
With ATTTGTAC [8-mer ATTTGTAC], the binding signal is 12.6.
For the sequence ATAAAATA [8-mer ATAAAATA], the binding signal is 12.1.
As to AATATAAA [8-mer AATATAAA], the binding signal is 12.1.
Turning to TACAAAAA [8-mer TACAAAAA], the binding signal was 12.
Consider GGTCTAAA [8-mer GGTCTAAA], for which the binding signal was 11.6.
For the sequence GTTTTGTA [8-mer GTTTTGTA], the binding signal is 12.
For the sequence GTACAAAA [8-mer GTACAAAA], the binding signal was 13.
For the sequence AGTTTTAT [8-mer AGTTTTAT], the binding signal was 12.2.
With CGTACAAC [8-mer CGTACAAC], the binding signal is 11.7.
Consider GTACAACA [8-mer GTACAACA], for which the binding signal was 11.8.
Regarding TCTAAAAA [8-mer TCTAAAAA], the binding signal is 11.6.
In the case of GTACAAAC [8-mer GTACAAAC], the binding signal is 12.8.
As for GTGATAAA [8-mer GTGATAAA], the binding signal is 12.1.
With GATTAATA [8-mer GATTAATA], the binding signal was 12.
Take TGTATTAA [8-mer TGTATTAA]: the binding signal is 12.1.
For GGGTACAA [8-mer GGGTACAA], the binding signal is 11.8.
In the case of ATTTAGAC [8-mer ATTTAGAC], the binding signal is 11.8.
With AATAAAAT [8-mer AATAAAAT], the binding signal is 12.
Consider ATATTAAA [8-mer ATATTAAA], for which the binding signal is 12.1.
On to CTTTAGAC [8-mer CTTTAGAC], for which the binding signal is 11.6.
Take CCGTACAA [8-mer CCGTACAA]: the binding signal was 12.
As for TGTACAAA [8-mer TGTACAAA], the binding signal is 12.7.
Regarding CGTCCAAA [8-mer CGTCCAAA], the binding signal is 11.4.
